Data as given in PubChem BioAssay AID1508642 (National Center for Advancing Translational Sciences (NCATS), 2021).
The campaign covered roughly 43,000 compounds. About 200 (0.47%) were called active. Inconclusive means that the source gave no clear call. Such entries were picked first, then a sample of the others. Calls come from the whole dose curve; as a rule, active = well fitted cell-killing curve with a large enough effect; inconclusive = small, poorly fitted or top-dose-only effect, or effect the other way; inactive = flat fitted curve, though single readings scatter. Potencies of inconclusive entries are doubtful fits and often do not repeat.

Experiment: Cell viability qHTS assay in S16 Pmp22-F2sN cells; note: nearly all actives have a fitted effect of over 65% in size
Conditions: S16 Pmp22-F2sN Schwann cells (luciferase reporters placed in the Pmp22 gene) viability, CellTiter-Glo, 24 h; series mostly up to 57.5 µM
Source text: Assay Provider: Jim Inglese Ph.D. National Center for Advancing Translational Science, National Institutes of Health, Rockville, MD CMT is a heterogeneous group of neurological disorders that affect approximately 1 in 2,500 people. In particular, the most common form of CMT, CMT1A is genetically linked to the duplication of the PMP22 gene which leads to Schwann cell overexpression, thus manifesting itself as a typical case of dose-sensitive diseases. To identify small molecule compounds that can mediate the expression of PMP22 we developed a phenotypic assay screening strategy by utilizing genome editing techniques to construct Schwann cell lines containing novel reporter technology to monitor the transcriptional or translational regulation of PMP22. For high sensitivity we use a bioluminescent reporter system embedded in the 3' UTR of the PMP22 gene (S16(c9) Pmp22-F2sN) to identify compounds that inhibit gene expression. […] We can further discriminate the effect of all transcriptionally active molecules on PMP22 translation or stability with an assay that incorporates a short NLuc peptide (HiBiT) at the C-terminus of expressed PMP22 (S16(f8) PMP22-HiBiT) allowing alpha complementation and luminescence detection of membrane-associated PMP22 protein. These assays were screened against the NCATS Sytravon Library Collection. Miniaturization of these assays to 1536-well plate format for quantitative high throughput screening (qHTS) yielded rich data sets immediately from the qHTS assay (S16(c9) Pmp22-F2sN), when compared with data from a cell viability assay (Cell TiterGlo) to identify compounds that decreased the output signals through cellular toxicity to streamline the selection process of actives for subsequent characterization using the HiBiT assay (S16(f8) PMP22-HiBiT).
Cell viability assay in S16 Pmp22-F2sN cells PROTOCOL TABLE (format as described by Inglese J, Shamu CE and Guy RK. 2007) SEQUENCE No. (e.g., 1, 2, 3, etc.); […] (e.g., Cells, Incubation, Reagent, etc.); VALUE and DESCRIPTION. 1. Cells. Add 500-1,000 cells in 4 uL in growth media (DMEM High Glucose, No Phenol Red media + 10% heat-inactivated FBS + 1% Pen/Strep supplemented media) per well into Greiner 1536-well white/solid bottom high base, TC-treated plates. 2. Compounds. Library compounds and controls added at 23nL per well, transferred by Pin Tool. 3. Incubation. Incubate plates at 37C, 5% CO2, 95% RH for 24 h. 4. Reagent. Add 3uL CellTiter-Glo per well of Greiner 1536-well plates. 5. Incubation. Incubate plates at room temperature for 15 min., protect from light. 6. Detector. FLuc luminescence measured using CCD-based camera (Viewlux). NOTES (numbers refer to Sequence numbers above; values are from representative experiments) 6. Luminescence Read: Clear filter; Exposure = 1 sec, Gain = High, Speed = Slow, Binning = 2X REFERENCES: 1. Inglese J, Shamu CE and Guy RK, Reporting data from high throughput screening of small molecule libraries, Nature Chemical Biology, 2007, 3(8): 438-441. doi.org/10.1038/nchembio0807-438 2. Yasgar A, Shinn P, Jadhav A, Auld DS, Michael S, Zheng W, Austin CP, Inglese J and Simeonov A, Compound Management for Quantitative High-Throughput Screening. J. Assoc. Lab. Auto., 2008, 13: 79-89. doi: 10.1016/j.jala.2007.12.004
Potency is the fitted concentration of half-maximal effect; tags give direction and shape of the fitted curve.

Q: With COc1ccc(/C=C/C(=O)Nc2ccc3nc(N4CCC(C)CC4)cc(C)c3c2)cc1OC as the compound, how does the Potency read?
A: inconclusive: 39.8 µM [cytotoxic, single point]

Q: With Cn1c(=O)c2c(nc(SCC(=O)Nc3ccc(F)cc3F)n2Cc2ccccc2)n(C)c1=O as the compound, how does the Potency read?
A: inconclusive: 4.47 µM [cytotoxic, partial curve, poor fit]

Q: For COc1cccc(C2C(C(=O)Nc3ccc(Cl)cc3)=C(C)Nc3c(C(=O)Nc4ccccc4)cnn32)c1OC (stereo unspecified), which Potency is on record?
A: inconclusive: 31.6 µM [cytotoxic, single point]

Q: Which Potency does the source give for Cc1cccc(-c2nc3c(cnn3-c3ccccc3)c(=O)n2-c2cccc(Cl)c2)c1 here?
A: inconclusive: 31.6 µM [cytotoxic, single point]

Q: For O=C(NCCc1ccccc1)c1ccc2c(c1)N(Cc1ccccc1)C(=O)c1ccccc1S2=O (stereo unspecified), which Potency is on record?
A: inconclusive: 17.8 µM [cytotoxic, single point]

Q: For CC(C)(C)OC(=O)N1CCC(c2c(C(=O)Nc3ccc4c(c3)OCCO4)cnn2-c2ccc(F)cc2)CC1, which Potency is on record?
A: inconclusive: 28.2 µM [cytotoxic, partial curve, poor fit]

Q: For CCc1ccccc1NC(=O)Cn1nnc(C(=O)NCc2cccs2)c1N, which Potency is on record?
A: inactive

Q: Which Potency does the source give for CCc1ccc(NS(=O)(=O)c2ccc(C(=O)N(C)C)s2)cc1 here?
A: inconclusive: 25.1 µM [cytotoxic, single point]

Q: Which Potency does the source give for CC(=O)N(Cc1cccnc1)c1nc2c(C)cccc2s1 here?
A: inactive

Q: Which Potency does the source give for CCc1ccc(N2CCn3c2nc2c3c(=O)n(Cc3c(F)cccc3Cl)c(=O)n2C)cc1 here?
A: inactive

Q: For CCc1ccc(-c2cn3c(n2)sc2cc(C(=O)NCC(C)c4ccccc4)ccc23)cc1 (stereo unspecified), which Potency is on record?
A: inconclusive: 6.31 µM [rising, single point]

Q: With N#Cc1ccc(OC(=O)c2cc(-c3ccc4c(c3)OCCO4)on2)cc1 as the compound, how does the Potency read?
A: inactive

Q: Which Potency does the source give for COc1ccc(NC(=O)Nc2c[nH]c(=O)[nH]c2=O)c(OC)c1 here?
A: inconclusive: 0.158 µM [rising, full curve, poor fit]

Q: For O=C(Cn1c(-c2cccs2)cc2ccccc21)NCc1ccccc1Br, which Potency is on record?
A: inconclusive: 39.8 µM [cytotoxic, partial curve, poor fit]

Q: For Cc1oc(-c2cccc(Cl)c2)nc1CN1CCCC(C(=O)NCc2ccc(Cl)cc2)C1 (stereo unspecified), which Potency is on record?
A: inconclusive: 25.1 µM [cytotoxic, single point]

Q: For Cc1ccccc1CNC(=O)c1sc2ncnc(N(C)C3CCCCC3)c2c1C, which Potency is on record?
A: inconclusive: 25.1 µM [cytotoxic, single point]

Q: For Cc1ccc(Nc2nc(Nc3ccc(C)c(C)c3)nc(N3CCOCC3)n2)cc1C, which Potency is on record?
A: inconclusive: 31.6 µM [cytotoxic, partial curve, poor fit]

Q: For CCN1CCC(N(Cc2ccc(F)cc2)C(=O)Nc2cc(Cl)ccc2C(=O)OC)CC1, which Potency is on record?
A: inconclusive: 39.8 µM [cytotoxic, single point]

Q: With CC(=O)c1ccc(N2CCN(C(=O)c3ccc(Cn4c(=O)[nH]c5ccccc5c4=O)cc3)CC2)cc1 as the compound, how does the Potency read?
A: inconclusive: 31.6 µM [cytotoxic, single point]

Q: With Cc1ccc(C)c(NC(=O)NCc2ccc3c(c2)CCN3C(=O)c2ccccc2)c1 as the compound, how does the Potency read?
A: inactive

Q: With COc1ccc(Nc2cc(C)c3cc(NC(=O)c4cc(OC)cc(OC)c4)ccc3n2)cc1 as the compound, how does the Potency read?
A: inactive

Q: Which Potency does the source give for CC(=O)c1cccc(NC(=O)c2cc3nc(-c4ccc(Br)cc4)cc(C(F)(F)F)n3n2)c1 here?
A: inconclusive: 22.4 µM [cytotoxic, partial curve, poor fit]

Q: With COc1ccc(N(Cc2cccs2)C(=O)COc2cc(C)c(Cl)c(C)c2)cc1 as the compound, how does the Potency read?
A: inconclusive: 28.2 µM [cytotoxic, partial curve, poor fit]

Q: With COc1ccc(Nc2cc(C(=O)NCc3ccccc3)c3ccccc3n2)c(OC)c1 as the compound, how does the Potency read?
A: inactive

Q: With COc1ccc(-c2noc(-c3cccc(OC)c3OC)n2)cc1 as the compound, how does the Potency read?
A: inactive

Q: Which Potency does the source give for CCOc1ccc(-c2cn3c(n2)sc2cc(C(=O)NC4CCCc5ccccc54)ccc23)cc1 (stereo unspecified) here?
A: inconclusive: 31.6 µM [cytotoxic, single point]

Q: Which Potency does the source give for COc1ccc(CNC(=O)C2Cc3cc(S(=O)(=O)N4CCCCCC4)ccc3N2C(C)=O)cc1 (stereo unspecified) here?
A: inconclusive: 7.94 µM [rising, partial curve, poor fit]

Q: Which Potency does the source give for Cc1ccc2[nH]c3c(=O)n(CC(=O)NC(C)C)ncc3c2c1 here?
A: inactive

Q: Which Potency does the source give for COc1ccc(-c2[nH]c3ccccc3c2SCCNC(=O)c2ccc(S(=O)(=O)N(C)C)cc2)cc1 here?
A: inconclusive: 25.1 µM [cytotoxic, partial curve, poor fit]

Q: With O=C(CSC1=Nc2ccccc2N=C(c2ccc(F)cc2)C1)NCc1ccccc1Cl as the compound, how does the Potency read?
A: inconclusive: 8.91 µM [rising, partial curve]

Q: Which Potency does the source give for COCc1cc(C)nc2sc3c(c12)NC(c1ccc(O)cc1)N(c1ccc(C)cc1)C3=O (stereo unspecified) here?
A: inconclusive: 35.5 µM [cytotoxic, partial curve, poor fit]

Q: Which Potency does the source give for CCOc1ccc(C(=O)OCc2cc(=O)n3cc(C)sc3n2)cc1 here?
A: inconclusive: 0.708 µM [rising, full curve]

Q: For CCOc1ccc(CNC(=O)C2CCN(S(=O)(=O)c3cn(C)cn3)CC2)cc1OC, which Potency is on record?
A: inconclusive: 3.55 µM [cytotoxic, single point]

Q: For COc1ccc(CNC(=O)c2cnn(-c3ccc(C)cc3)c2-n2cccc2)cc1OC, which Potency is on record?
A: inconclusive: 39.8 µM [cytotoxic, single point]

Q: Which Potency does the source give for O=C(c1cn(CCOc2ccccc2F)c2ccccc12)C1CCCCC1 here?
A: inactive

Q: With Cc1cccc(Cn2cc(C(=O)c3ccccc3)c(=O)c3cc4c(cc32)OCO4)c1 as the compound, how does the Potency read?
A: inactive

Q: Which Potency does the source give for CCOc1ccc(NC(=O)C2CCN(S(=O)(=O)c3cc(-c4noc(C)n4)ccc3C)CC2)cc1 here?
A: inconclusive: 31.6 µM [cytotoxic, partial curve, poor fit]

Q: For CCOC(=O)c1nc(Nc2ccc(C(=O)OCC(C)C)cc2)c2ccccc2n1, which Potency is on record?
A: inconclusive: 10 µM [rising, partial curve, poor fit]

Q: For O=C(CCc1cn(Cc2ccccc2F)c2ccccc12)NCc1ccc(Cl)cc1, which Potency is on record?
A: inactive

Q: With Cc1ccccc1CNC(=O)c1ccc(Cn2c(SCc3cccc(F)c3)nc3cccnc32)cc1 as the compound, how does the Potency read?
A: inconclusive: 31.6 µM [cytotoxic, single point]

Q: For CCc1cccc2sc(N3CCN(C(=O)c4cc5ccccc5cc4OC)CC3)nc12, which Potency is on record?
A: inconclusive: 25.1 µM [cytotoxic, partial curve, poor fit]

Q: For Cc1ccc(CNC(=O)CN(c2ccc(Cl)cc2Cl)S(=O)(=O)c2ccccc2)cc1, which Potency is on record?
A: inconclusive: 25.1 µM [cytotoxic, single point]

Q: For Cc1ccc(-n2nc3c(N4CCCC(C(=O)NCCc5ccccc5)C4)nnc(C)c3c2C)cc1 (stereo unspecified), which Potency is on record?
A: inconclusive: 39.8 µM [cytotoxic, single point]

Q: With CCc1ccc(NC(=O)Cn2nnc(C(=O)Nc3cc(C)ccc3OC)c2N)cc1 as the compound, how does the Potency read?
A: inactive

Q: Which Potency does the source give for O=C(CCC1N=C2c3ccccc3N=C(SCc3cccc(F)c3)N2C1=O)NCc1ccc(F)cc1 (stereo unspecified) here?
A: inconclusive: 25.1 µM [cytotoxic, single point]

Q: For CCN(CC)CCNC(=O)Cn1ncc2c3ccccc3n(Cc3ccccc3C)c2c1=O, which Potency is on record?
A: inactive

Q: Which Potency does the source give for Cn1nnnc1SCCCNCc1ccccc1OCc1ccccc1F here?
A: inconclusive: 39.8 µM [cytotoxic, single point]

Q: For Oc1ccc(Nc2nc(-c3ccc(Cl)cc3)nc3ccccc23)cc1, which Potency is on record?
A: inconclusive: 39.8 µM [cytotoxic, single point]

Q: With Cc1ccc(CCNC(=O)c2ccc(CSCc3ccc(C)cc3)o2)cc1 as the compound, how does the Potency read?
A: inconclusive: 39.8 µM [cytotoxic, single point]

Q: For Cc1ccc(NC(=O)Cn2cc(S(=O)(=O)NC(C)C)c(S(=O)(=O)NC(C)C)c2)cc1Cl, which Potency is on record?
A: inconclusive: 20 µM [cytotoxic, single point]

Q: Which Potency does the source give for O=C1Nc2cc(Cl)ccc2Oc2cc(Oc3ccccc3)ccc21 here?
A: inconclusive: 31.6 µM [cytotoxic, single point]

Q: With Cc1ccc(-c2nnc(Nc3ccc(O)cc3)c3ccccc23)cc1S(=O)(=O)NCC1CCCO1 (stereo unspecified) as the compound, how does the Potency read?
A: inconclusive: 14.1 µM [cytotoxic, partial curve]

Q: For COc1ccc(Oc2nc3c(c(=O)n(Cc4ccccc4Cl)c(=O)n3C)n2C)cc1, which Potency is on record?
A: inconclusive: 11.2 µM [cytotoxic, partial curve]

Q: For COC(=O)c1c(SCC(=O)Nc2ccccc2OC)[nH]c2ccccc2c1=O, which Potency is on record?
A: inconclusive: 35.5 µM [cytotoxic, single point]

Q: With Cc1ccc(-n2ncc3c(N(CCO)Cc4ccccc4)ncnc32)cc1 as the compound, how does the Potency read?
A: inconclusive: 39.8 µM [cytotoxic, single point]

Q: Which Potency does the source give for Cc1ccc(NC(=O)CCc2c(C)nn(-c3ccc(N4CCOCC4)nn3)c2C)cc1F here?
A: inconclusive: 39.8 µM [cytotoxic, single point]

Q: For CN(Cc1ccccc1)C(=O)c1cc2c(s1)-c1ccc(Cl)cc1SC2, which Potency is on record?
A: inconclusive: 12.6 µM [rising, partial curve, poor fit]

Q: With O=C(CCCCn1c(=O)c2ccccc2n(CC(=O)Nc2cccc(F)c2)c1=O)NCc1ccccc1Cl as the compound, how does the Potency read?
A: inconclusive: 20 µM [rising, partial curve, poor fit]

Q: Which Potency does the source give for Cc1ccccc1CNC(=O)C1CCCN(c2nnc(-n3c(C)ccc3C)s2)C1 (stereo unspecified) here?
A: inconclusive: 8.91 µM [cytotoxic, partial curve, poor fit]

Q: For Cc1ccc(C)c(NC(=O)Cn2nnc(C(=O)NCc3ccco3)c2N)c1, which Potency is on record?
A: inconclusive: 8.91 µM [cytotoxic, partial curve]

Q: For CCOC(=O)c1cc(-c2ccccc2)n(CCCC(=O)Nc2ccc(C)c(C)c2)c1C, which Potency is on record?
A: inconclusive: 39.8 µM [cytotoxic, single point]
